# Laboratory results reported in article PMC4336329 (PLoS ONE, 2015).
# Out of some 310,000 compounds screened, about 14,000 (4.5%) showed an effect of 50% or more. The effect is printed as a negative number. The list shows a part of the results.
# Molecular target: human ether-à-go-go-related gene (hERG) potassium channel (human, UniProt Q12809)
# Test: primary screen, population patch clamp on CHO cells stably expressing hERG
# 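Also: peak tail current of the secondary pulse compared with the same well before compound.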
# Chain of human ether-à-go-go-related gene (hERG) potassium channel (Q12809 whole entry, looked up): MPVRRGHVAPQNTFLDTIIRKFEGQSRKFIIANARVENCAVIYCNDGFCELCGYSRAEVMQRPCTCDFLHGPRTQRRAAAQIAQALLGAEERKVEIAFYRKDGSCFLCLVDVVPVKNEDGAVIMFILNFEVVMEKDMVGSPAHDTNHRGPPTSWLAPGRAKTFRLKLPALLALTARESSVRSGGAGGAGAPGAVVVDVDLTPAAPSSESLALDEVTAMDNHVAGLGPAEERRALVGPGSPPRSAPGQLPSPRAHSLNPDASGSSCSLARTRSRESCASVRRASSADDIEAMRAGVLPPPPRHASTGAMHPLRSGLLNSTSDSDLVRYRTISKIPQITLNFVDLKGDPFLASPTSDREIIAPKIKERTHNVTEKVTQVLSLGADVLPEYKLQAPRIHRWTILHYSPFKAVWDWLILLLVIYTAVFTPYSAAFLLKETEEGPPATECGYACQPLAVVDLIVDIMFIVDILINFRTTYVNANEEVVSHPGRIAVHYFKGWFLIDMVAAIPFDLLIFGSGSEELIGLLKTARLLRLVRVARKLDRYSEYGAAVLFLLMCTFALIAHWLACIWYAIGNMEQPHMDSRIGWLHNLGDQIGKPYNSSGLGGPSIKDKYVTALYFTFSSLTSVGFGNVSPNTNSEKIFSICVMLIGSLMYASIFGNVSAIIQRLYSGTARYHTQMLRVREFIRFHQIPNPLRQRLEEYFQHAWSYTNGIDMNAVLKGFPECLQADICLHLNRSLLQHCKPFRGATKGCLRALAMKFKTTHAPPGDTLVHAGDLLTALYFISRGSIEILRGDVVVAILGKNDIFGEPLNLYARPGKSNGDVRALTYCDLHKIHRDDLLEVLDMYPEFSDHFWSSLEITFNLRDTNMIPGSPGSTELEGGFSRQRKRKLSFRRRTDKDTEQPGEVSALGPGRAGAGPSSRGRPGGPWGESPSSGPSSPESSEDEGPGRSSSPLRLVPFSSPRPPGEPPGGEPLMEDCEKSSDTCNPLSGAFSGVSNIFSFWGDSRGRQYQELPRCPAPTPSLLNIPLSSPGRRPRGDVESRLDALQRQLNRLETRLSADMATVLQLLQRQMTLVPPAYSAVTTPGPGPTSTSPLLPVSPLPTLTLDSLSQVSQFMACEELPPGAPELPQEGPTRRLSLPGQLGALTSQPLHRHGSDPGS
row,SMILES,"hERG current change (%, negative = inhibition) at 10uM"
1,COC(=O)c1cn(Cc2ccc(C(F)(F)F)cc2)cc(F)c1=O,5.58%
2,O=C(NCCCCCCOC1=NS(=O)(=O)c2ccccc21)C(=O)Nc1ccccc1,17.1%
3,CC(=O)N1CCN(c2ccc(NC(=O)c3ccccc3Br)cc2Cl)CC1,-23%
4,O=C(/C=C/c1ccc2c(c1)OCO2)c1ccc[nH]1,-4.59%
5,CCCOc1ccc(N2C(=O)CC(N(CCc3ccc(OC)cc3)C(=O)c3ccccc3)C2=O)cc1 (stereo not shown),-10.6%
6,CC(C)NC(=O)CN1CCC(c2ccccc2)C(O)C1 (stereo not shown),20.1%
7,CCN(CC)CCN(C(=O)c1ccc(Br)s1)c1nc2cc3c(cc2s1)OCCO3.Cl,-1.19%
8,CCCSc1nc2cc(S(=O)(=O)N3CCOCC3)ccc2n1CC,-9.64%
9,CCOC(=O)c1cn(CC2CC2)c2cc(F)c(F)cc2c1=O,-16.2%
10,CCOc1ccc(-n2c(-c3cccs3)nc3ccccc3c2=O)cc1,25.7%
11,CCOc1ccc(-c2nn(-c3ccccc3)cc2/C=C2\SC(=S)N(C3CCS(=O)(=O)C3)C2=O)cc1 (stereo not shown),9.23%
12,O=c1[nH]cc(N2CCCCCC2)c(=O)[nH]1,15.6%
13,Cc1ccc(CONC(=O)c2ccccc2)cc1,19.6%
14,C=CCn1c(SCCNC(C)=O)nc2cc(-c3ccccc3)sc2c1=O,3.58%
15,CC(=O)N1c2ccc(S(=O)(=O)NCC3CCC(C(=O)NC4CCCCC4C)CC3)cc2CC1C (stereo not shown),-12.2%
16,CC(C)CCn1c(N2CCCC2)nc2c1c(=O)n(C)c(=O)n2C,7.4%
17,CCN(CC)CCNS(=O)(=O)c1ccc2c3c(cccc13)C(=O)N2,4.08%
18,O=C(CCCSc1nc2ccccc2[nH]1)NC1=NCCS1,-7.59%
19,Cc1ccc2c(c1)/C(=N/OS(=O)(=O)c1ccccc1)CCS2,-0.661%
20,COc1cc(C(=O)N(Cc2ccco2)Cc2cc3ccccc3[nH]c2=O)cc(OC)c1OC,-19.9%
21,Cc1ccc(S(=O)(=O)N(C)c2ccc(C(=O)NCCc3ccccc3)cc2)cc1,-6.94%
22,O=S(=O)(Nc1ncccn1)c1ccc(NS(=O)(=O)c2cc(Cl)ccc2Cl)cc1,31.6%

row,SMILES,"hERG current change (%, negative = inhibition) at 10uM"
1,CN1C(=O)S/C(=C\c2ccccc2OCc2ccc(C(=O)O)cc2)C1=O,3.52%
2,CCOc1ccc(NC(=O)CC2SC(=O)N(c3ccccc3)C2=O)cc1 (stereo not shown),17.2%
3,COCCNC(=O)C(c1cccs1)N(C(=O)Cn1nnc2ccccc21)c1cccc(C(C)=O)c1 (stereo not shown),12.5%
4,CC(=O)N1CCc2c(sc(NC(=O)CS(=O)(=O)c3ccc(F)cc3)c2C#N)C1,-12.6%
5,Cc1ccc(COc2ccsc2C(=O)NNC(N)=S)cc1,19.9%
6,O=C(c1cc2sccc2n1Cc1ccccc1)N1CCc2ccccc21,-2.82%
7,O=C(c1cnc(-c2ccccc2)s1)c1ccc(Cl)cc1Cl,-7.87%
8,CC1(C)CC(=O)C2=C(C1)OC(N)=C(C#N)C21CCC2(CC1)OCCO2,6.25%
9,COc1ccc(CNC(=O)Nc2ccc([N+](=O)[O-])cc2)cc1,5.47%
10,Cn1c(=O)c2c(nc(CN3CCN(C(=O)c4ccco4)CC3)n2Cc2ccccc2F)n(C)c1=O,-47.6%
11,O=C(Nc1ccc2c(c1)OCCO2)C1CCC1,7.7%
12,O=C(COc1cccc2ccccc12)NNC(=O)Nc1ccccc1,2.05%
13,CNC(=O)COc1ccc(S(=O)(=O)N2CCCC2)cc1,18.1%
14,CC(C(=O)NCCS(=O)(=O)c1ccc(Cl)cc1)S(=O)(=O)c1ccccc1 (stereo not shown),-4.41%
15,Cc1cn(C(=O)c2ccccc2)c(=S)n1-c1ccc(Cl)cc1,-9.79%
16,COc1ccc(CCn2c(=S)[nH]c3cc(C(=O)N4CCOCC4)ccc3c2=O)cc1OC,-6.76%
17,COc1ccccc1CNC(=O)C1CC2Cn3c(nc4cc(Cl)c(Cl)cc43)C2N1C (stereo not shown),-65.4%
18,Cc1ccc(NC(=O)c2cc(S(=O)(=O)N3CCCC3)c[nH]2)c(C)c1,-11.8%
19,COC(C[C@H](O)C[C@H](O)[C@@H](C)OCc1ccccc1)OC,14.3%
20,Cc1ccc(SCCC(=O)N/N=C/c2cccnc2)cc1,-24.9%
21,O=c1o[nH]c(-c2ccccc2)c1C=Nc1ccc(Cl)cc1,-5.87%
22,CCCCCn1c(NC(=O)c2ccco2)c(C(=O)OCC)c2nc3ccccc3nc21,-80.4%

row,SMILES,"hERG current change (%, negative = inhibition) at 10uM"
1,COc1ccc(S(=O)(=O)Cc2ccccc2)cc1N,-9.73%
2,COc1cccc(-c2nn(C)c3sc(C(=O)NCc4ccccn4)cc23)c1,0.494%
3,COC(=O)c1ccc(-c2ccc(/C=N/N3C(=O)C4C5C=CC(C6CC56)C4C3=O)o2)cc1 (stereo not shown),-2.94%
4,COCCNC(=O)c1ccc(CS(=O)(=O)c2cccc(C(F)(F)F)c2)o1,4.09%
5,CCC(C)[C@H](NC(=O)N1CC(=O)Nc2ccccc21)C(=O)N1CCC[C@@H]1C(=O)O (stereo partly shown),13.5%
6,O=c1oc(-c2ccccc2)nc2sc3c(c12)CCCC3,14.9%
7,O=C(c1ccco1)N1CCN(S(=O)(=O)c2ccc(F)cc2)CC1,-2.41%
8,Cc1ccc(-c2ccc(=O)n(CC(=O)Nc3cccc(C(=O)N4CCN(C)CC4)c3)n2)cc1,-9.15%
9,COc1ccc(Br)cc1S(=O)(=O)n1ccnc1,23%
10,NS(=O)(=O)c1cc(Cl)c(Cl)c(S(N)(=O)=O)c1,1.33%
11,Cc1cccc(NC(=S)N/N=C/c2c[nH]c3ccccc23)c1,6.08%
12,O=C(NNC(=O)C1CC1c1ccccc1)Nc1ccccc1 (stereo not shown),6.07%
13,c1ccc(-c2nnc3ccc(N4CCC5(CC4)OCCO5)nn23)cc1,-46.8%
14,N#CC1=C(N)C(C#N)(C#N)[C@H](c2ccncc2)[C@H]2CC3(CC=C12)OCCO3,2.57%
15,COc1ccc2nc(NC(=O)CSc3cn[nH]n3)sc2c1,4.71%
16,COc1ccc(-n2c(-c3ccccc3)nc(=S)c3c2CCCC3)cc1,1.33%
17,O=C(Cc1ccc(Cl)cc1)Nc1ccccc1N1CCOCC1,5.94%
18,COc1ccc(OCc2cc(C(=O)N(C)Cc3cc(C)no3)no2)c(Cl)c1,-12.5%
19,Nc1cccc(S(=O)(=O)NC2=NCCC2)c1,20.6%
20,COc1ccc(N2CCN(CC(=O)Nc3ccc(SC(F)F)cc3)CC2)cc1,-76.6%
21,NC(=O)COC(=O)c1ccccc1Nc1ccc(SC(F)F)cc1,-40.6%
22,CCCCn1c(=O)c(C(=O)NCc2ccco2)c(O)c2ccccc21,-0.439%

row,SMILES,"hERG current change (%, negative = inhibition) at 10uM"
1,Cn1c(-c2cnn(-c3ccccc3)c2N)n[nH]c1=S,11.8%
2,CCOC(=O)c1cc(CC)sc1NC(=O)CN1C(=O)C(=O)N(CC(C)C)C1=O,-4.75%
3,CC1Cc2cc(S(=O)(=O)N3CCCCC3)ccc2N1C(=O)C1CCC1 (stereo not shown),-15%
4,COCCN1C=C2C(=O)C(C)(OC(=O)CCc3ccccc3)C(=O)C=C2C=C1c1ccc(C#N)cc1 (stereo not shown),-72.4%
5,COC(=O)c1cn(NC(=O)/C=C/c2cc(OC)ccc2OC)c(=O)c2ccccc12,-4.33%
6,O=C(c1cnc(N2CCN(c3ncccn3)CC2)c2ccccc12)N1CCN(c2ccccn2)CC1,-21.7%
7,CCCCN(CC)C(=O)C1CCC(CNS(=O)(=O)c2cccc3nsnc23)CC1 (stereo not shown),-23.7%
8,Cc1nnc(SCC(=O)N2CCCCCC2)n(N)c1=O,12.1%
9,N#C/C(=C\c1ccc[nH]1)C(=O)NCC1CCCO1 (stereo not shown),11.6%
10,CN(Cc1ccco1)C(=O)CCc1nc2sc3c(c2c(=O)[nH]1)CCCC3,-9.11%
11,CCOC(=O)c1cnc(SC2CC(=O)N(c3ccccc3)C2=O)nc1N (stereo not shown),9.58%
12,Cc1ccc(/C=C/C(=O)O)cc1S(=O)(=O)Nc1ccc(C(=O)O)cc1,5.14%
13,N#CC(=C=[N-])c1nc2ccccc2nc1-[n+]1cccc(NC(=O)c2cccs2)c1,-1.3%
14,CN1/C(=C\C(=S)Nc2ccccc2)C(C)(C)c2ccccc21,-16.9%
15,O=C(O)c1ccc(S(=O)(=O)NC2CCCc3ccccc32)cc1 (stereo not shown),4.88%
16,CCOC(=O)c1ccc(NC(=S)N(CCN2CCCCCC2)Cc2cccs2)cc1,-11.6%
17,COc1ccc(S(=O)(=O)c2ccc(OCC3CO3)cc2)cc1 (stereo not shown),13.7%
18,CCOc1ccc(C(=O)C[n+]2ccc(C(=O)NCCO)cc2)cc1.[Br-],18.3%
19,O=C(CSc1ccccc1Cl)N1CCC(c2nc3ccccc3s2)CC1,-7.4%
20,CCN(CC)C(=O)C1=C(C)NC(=O)NC1c1ccccc1F (stereo not shown),-3.49%
21,Cc1ccc(NC(=O)C2CCN(C(=O)NC3CCCCC3)CC2)cc1,1.58%
22,O=C(CSc1nnc(-c2ccncc2)s1)Nc1ccc(Cl)c(C(=O)O)c1,13.7%
